In PMC9136127:
Results are given in words; binding and its absence hold for the method and conditions named. Binding seen in cells or lysates may run through a third protein. Some binding calls cover weakened binding; strength is not graded here. For some assays here: Where a sequence is shown, tags or fusion partners need not be part of it. Blank lines part the entries; values can stand above or below the molecule they belong to.

Protein sequences, listed by entry. Tags and fused reporters are not part of them.
UniProt Q07065: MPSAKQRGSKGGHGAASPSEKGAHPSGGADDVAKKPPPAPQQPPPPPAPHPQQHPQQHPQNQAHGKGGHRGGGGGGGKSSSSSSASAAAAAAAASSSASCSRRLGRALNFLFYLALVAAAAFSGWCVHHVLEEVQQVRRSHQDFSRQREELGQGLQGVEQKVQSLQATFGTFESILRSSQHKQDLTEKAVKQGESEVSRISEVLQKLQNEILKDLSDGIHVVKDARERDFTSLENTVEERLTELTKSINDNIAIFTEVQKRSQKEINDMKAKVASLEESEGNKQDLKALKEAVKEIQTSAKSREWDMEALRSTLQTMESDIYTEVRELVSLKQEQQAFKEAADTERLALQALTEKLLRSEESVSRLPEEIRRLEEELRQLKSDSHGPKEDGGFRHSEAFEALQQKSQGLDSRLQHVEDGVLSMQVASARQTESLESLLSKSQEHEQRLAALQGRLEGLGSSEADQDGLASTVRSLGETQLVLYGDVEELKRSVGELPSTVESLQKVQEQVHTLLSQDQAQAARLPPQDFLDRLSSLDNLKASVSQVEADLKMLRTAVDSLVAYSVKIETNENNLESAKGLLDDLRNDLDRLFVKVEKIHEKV

What was measured:
[1] = biological target: T1, RHBDL4 (endogenous) (not stated (endogenous; cell line of Figure 5D not named, HeLa or MEF)) (UniProt Q8TEB9); assay: co-IP; endogenous RHBDL4 precipitated from cell lysate (25 mM Tris, 150 mM NaCl, 1 mM EDTA, 1% NP-40, 5% glycerol, pH 7.4) with rabbit anti-RHBDL4 crosslinked to Protein A/G magnetic beads, 1 h at 4 °C; Western blot
T1 sequence: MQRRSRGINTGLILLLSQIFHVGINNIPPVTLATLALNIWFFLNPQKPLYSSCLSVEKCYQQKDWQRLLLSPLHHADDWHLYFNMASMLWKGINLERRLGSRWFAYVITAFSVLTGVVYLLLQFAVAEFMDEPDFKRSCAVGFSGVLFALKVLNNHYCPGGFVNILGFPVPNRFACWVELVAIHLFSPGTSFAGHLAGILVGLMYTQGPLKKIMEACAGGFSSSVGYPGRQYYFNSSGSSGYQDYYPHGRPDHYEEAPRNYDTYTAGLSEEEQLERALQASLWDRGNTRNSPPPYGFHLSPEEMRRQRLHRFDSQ

RHBDL4 HA = biological target: T2, RHBDL4 HA (UniProt Q8TEB9); assay: co-IP; tagged RHBDL4 and CLIMP-63 transiently expressed in HeLa cells; lysis buffer with CHAPS instead of NP-40; anti-HA or anti-Myc magnetic beads; Western blot
T2 sequence: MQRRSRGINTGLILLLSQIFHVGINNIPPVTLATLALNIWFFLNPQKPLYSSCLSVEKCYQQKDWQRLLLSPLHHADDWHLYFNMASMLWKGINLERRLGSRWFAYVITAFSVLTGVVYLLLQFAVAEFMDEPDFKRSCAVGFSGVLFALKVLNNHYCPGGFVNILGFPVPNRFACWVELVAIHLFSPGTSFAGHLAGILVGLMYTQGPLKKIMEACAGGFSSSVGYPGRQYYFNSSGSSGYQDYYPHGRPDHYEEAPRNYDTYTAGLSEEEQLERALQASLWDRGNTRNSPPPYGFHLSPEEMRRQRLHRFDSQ

[2] = biological target: CLIMP-63 hemagglutinin (HA) (UniProt Q07065); assay: as above
CLIMP-63 Myc = CLIMP-63 Myc (UniProt Q07065); assay: as above

binding [1]: binds
Molecule: cytoskeleton-linking membrane protein 63 (CLIMP-63), endogenous (from UniProt Q07065 1-602)

binding (RHBDL4 HA): binds
Molecule: CLIMP-63 Myc (from UniProt Q07065 1-602)

binding [1]: no binding
B1: calnexin (CNX), endogenous (protein, UniProt P27824 21-592)
chain: HDGHDDDVIDIEDDLDDVIEEVEDSKPDTTAPPSSPKVTYKAPVPTGEVYFADSFDRGTLSGWILSKAKKDDTDDEIAKYDGKWEVEEMKESKLPGDKGLVLMSRAKHHAISAKLNKPFLFDTKPLIVQYEVNFQNGIECGGAYVKLLSKTPELNLDQFHDKTPYTIMFGPDKCGEDYKLHFIFRHKNPKTGIYEEKHAKRPDADLKTYFTDKKTHLYTLILNPDNSFEILVDQSVVNSGNLLNDMTPPVNPSREIEDPEDRKPEDWDERPKIPDPEAVKPDDWDEDAPAKIPDEEATKPEGWLDDEPEYVPDPDAEKPEDWDEDMDGEWEAPQIANPRCESAPGCGVWQRPVIDNPNYKGKWKPPMIDNPSYQGIWKPRKIPNPDFFEDLEPFRMTPFSAIGLELWSMTSDIFFDNFIICADRRIVDDWANDGWGLKKAADGAAEPGVVGQMIEAAEERPWLWVVYILTVALPVFLVILFCCSGKKQTSGMEYKKTDAPQPDVKEEEEEKEEEKDKGDEEEEGEEKLEEKQKSDAEEDGGTVSQEEEDRKPKAEEDEILNRSPRNRKPRRE

B2: RHBDL4 Myc (enzyme, UniProt Q8TEB9 1-315)
chain: MQRRSRGINTGLILLLSQIFHVGINNIPPVTLATLALNIWFFLNPQKPLYSSCLSVEKCYQQKDWQRLLLSPLHHADDWHLYFNMASMLWKGINLERRLGSRWFAYVITAFSVLTGVVYLLLQFAVAEFMDEPDFKRSCAVGFSGVLFALKVLNNHYCPGGFVNILGFPVPNRFACWVELVAIHLFSPGTSFAGHLAGILVGLMYTQGPLKKIMEACAGGFSSSVGYPGRQYYFNSSGSSGYQDYYPHGRPDHYEEAPRNYDTYTAGLSEEEQLERALQASLWDRGNTRNSPPPYGFHLSPEEMRRQRLHRFDSQ
binding [2]: binds

binding (CLIMP-63 Myc): binds
B3: RHBDL4 S144A (enzyme, UniProt Q8TEB9 1-315)
chain: MQRRSRGINTGLILLLSQIFHVGINNIPPVTLATLALNIWFFLNPQKPLYSSCLSVEKCYQQKDWQRLLLSPLHHADDWHLYFNMASMLWKGINLERRLGSRWFAYVITAFSVLTGVVYLLLQFAVAEFMDEPDFKRSCAVGFAGVLFALKVLNNHYCPGGFVNILGFPVPNRFACWVELVAIHLFSPGTSFAGHLAGILVGLMYTQGPLKKIMEACAGGFSSSVGYPGRQYYFNSSGSSGYQDYYPHGRPDHYEEAPRNYDTYTAGLSEEEQLERALQASLWDRGNTRNSPPPYGFHLSPEEMRRQRLHRFDSQ
